In US20210171576A1, “METHODS FOR TREATING CANCER WITH ACYLDEPSIPEPTIDE ANALOGS” (priority 2018, published 2021):
Where a SMILES comes first, the peptide text is derived from it. Bridges are numbered along the chain shown (N, C = ends). [ ]: non-standard residue; d: D form. The star is where a group is joined. Phe(3,5-F2) = N[C@@H](Cc1cc(F)cc(F)c1)C(=O)O; Pip(4S-Me) = C[C@H]1CCN[C@H](C(=O)O)C1; Pro(4R-Me) = C[C@H]1CN[C@H](C(=O)O)C1; Heptenoyl(2E) = CCCC/C=C/C(=O)*; aThr = C[C@H](O)[C@H](N)C(=O)O; Pip = O=C(O)[C@@H]1CCCCN1; X1 = CCC/C=C/C=C/C(=O)*

Target: T1, human mitochondrial CIpP (HsCIpP) (Homo sapiens, UniProt Q16740)
T1 construct: made in house; host or cells: E. coli SG1146 (BL21(DE3) ΔclpP::cat)
Test: Screen of ADEP analogs against HsCIpP: relative degradation (RD) index, casein-FITC degradation relative to E. coli CIpAP
Type: biochemical
Parameters: key: casein-FITC degradation by HsClpP relative to EcClpAP
Settings: for Hs RD5: RD value at 5 μM of the ADEP analog
Excerpt: Structural analogs of acyldepsipeptide (ADEP) (Goodreid et al., 2016) that were previously developed as potential antibiotics against bacterial CIpP were screened and assessed for their ability to activate and dysregulate the protease activity of HsCIpP, by measuring their relative degradation (RD) index. Note that ADEP-28 was also previously reported by Carney et al. (2014). Details of the experimental protocol have been described in Leung et al., 2011. The RD index is defined as follows: […]
Δφ is the change in fluorescence after 6 hr of starting the reaction measured using 485 nm excitation and 535 nm emission, which primarily detects the signal from casein-FITC. E. coli CIpAP was used as a benchmark for maximum CIpP proteolytic activity. The CIpP in the numerator can be from any other organism. RD25 measurements refer to the measurement in the presence of 25 μM compound. All ADEP analogs were first screened at 25 μM, and their RD25 scores were calculated using the above formula and method as described in Leung et al., 2011 (FIG. 1A). Those that achieved RD25≥0.87 were screened a second time at 5 μM, followed by calculation of their RD5 scores. The top analogs with RD5≥0.74 were screened a third time at 1 μM, followed by calculation of their RD1 scores (FIG. 1B).
To identify ADEP analogs that allow HsCIpP to degrade folded proteins independent of HsCIpX+ATP (i.e., that activate or dysregulate HsCIpP), the inventors employed the in vitro screening method that was used for identifying small molecule activators of Escherichia coli CIpP (EcCIpP) (Leung et al., 2011). In this approach, the ability of HsCIpP to degrade FITC-labeled casein (casein-FITC) was measured and compared to the ability of EcCIpAP to degrade casein-FITC. This is quantitatively expressed as relative degradation (RD) index (Leung et al., 2011).

T1 sequence (Q16740 57-277): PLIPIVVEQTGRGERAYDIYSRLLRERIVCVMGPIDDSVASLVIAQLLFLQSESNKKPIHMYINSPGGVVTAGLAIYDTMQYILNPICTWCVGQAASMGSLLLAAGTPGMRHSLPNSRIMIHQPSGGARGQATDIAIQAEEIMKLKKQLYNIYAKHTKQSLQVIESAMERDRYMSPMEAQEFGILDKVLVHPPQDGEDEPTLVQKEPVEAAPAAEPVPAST

| SMILES | Hs RD5 | Hs RD1 (RD value at 1 μM of the ADEP analog) |
| --- | --- | --- |
| CCC/C=C/C=C/C(=O)N[C@@H](Cc1cc(F)cc(F)c1)C(=O)N[C@@H]1C(=O)N2CCC[C@H]2C(=O)N2CCCC[C@H]2C(=O)N[C@@H](C)C(=O)N2C[C@H](C)C[C@H]2C(=O)O[C@H]1C [ADEP-14] (X1-[Phe(3,5-F2)][aThr]P[Pip]A[Pro(4R-Me)]; ester 2-C) | 0.92 | – |
| CCCC/C=C/C(=O)N[C@@H](Cc1cc(F)cc(F)c1)C(=O)N[C@@H]1C(=O)N2CCC[C@H]2C(=O)N2CC[C@H](C)C[C@H]2C(=O)N[C@@H](C)C(=O)N2CCC[C@H]2C(=O)O[C@H]1C [ADEP-28] ({Heptenoyl(2E)}-[Phe(3,5-F2)][aThr]P[Pip(4S-Me)]AP; ester 2-C) | 0.93 | 0.82 |
